Data reported in the supplement of paper PMC11741623.
The list shows a part of the results. Interaction screen of human proteins with wild-type SARS-CoV-2 proteins by split-DHFR complementation in yeast, 1 µg/mL methotrexate. Value = fitness of the pair (three or more lineages) minus that of the viral protein without a human partner, on a scale set by negative (0) and fused positive (1) controls, mean of up to three cultures; higher = more likely to interact. Active = false discovery rate below 0.05 (one-sided t-test) in at least one culture. Nearly all pairs are not hits, and differences among them are mostly noise (correlation between cultures about 0.3); most hits were seen in one culture only. Human sequences are the Swiss-Prot entries looked up by gene name; the clone may be another isoform. NSP2 values were corrected by the authors for a growth advantage. Listed are human proteins with a hit and a random twelfth of the others.

B1: LRTM2, Q8N967 (protein)
chain: MLAPGSSPGQRGRLALQWRQVSWITCWIALYAVEALPTCPFSCKCDSRSLEVDCSGLGLTTVPPDVPAATRTLLLLNNKLSALPSWAFANLSSLQRLDLSNNFLDRLPRSIFGDLTNLTELQLRNNSIRTLDRDLLRHSPLLRHLDLSINGLAQLPPGLFDGLLALRSLSLRSNRLQNLDRLTFEPLANLQLLQVGDNPWECDCNLREFKHWMEWFSYRGGRLDQLACTLPKELRGKDMRMVPMEMFNYCSQLEDENSSAGLDIPGPPCTKASPEPAKPKPGAEPEPEPSTACPQKQRHRPASVRRAMGTVIIAGVVCGVVCIMMVVAAAYGCIYASLMAKYHRELKKRQPLMGDPEGEHEDQKQISSVA
B2: TNFSF14, O43557 (protein)
chain: MEESVVRPSVFVVDGQTDIPFTRLGRSHRRQSCSVARVGLGLLLLLMGAGLAVQGWFLLQLHWRLGEMVTRLPDGPAGSWEQLIQERRSHEVNPAAHLTGANSSLTGSGGPLLWETQLGLAFLRGLSYHDGALVVTKAGYYYIYSKVQLGGVGCPLGLASTITHGLYKRTPRYPEELELLVSQQSPCGRATSSSRVWWDSSFLGGVVHLEAGEKVVVRVLDERLVRLRDGTRSYFGAFMV
B3: HELLS, Q9NRZ9 (protein)
chain: MPAERPAGSGGSEAPAMVEQLDTAVITPAMLEEEEQLEAAGLERERKMLEKARMSWDRESTEIRYRRLQHLLEKSNIYSKFLLTKMEQQQLEEQKKKEKLERKKESLKVKKGKNSIDASEEKPVMRKKRGREDESYNISEVMSKEEILSVAKKNKKENEDENSSSTNLCVEDLQKNKDSNSIIKDRLSETVRQNTKFFFDPVRKCNGQPVPFQQPKHFTGGVMRWYQVEGMEWLRMLWENGINGILADEMGLGKTVQCIATIALMIQRGVPGPFLVCGPLSTLPNWMAEFKRFTPDIPTMLYHGTQEERQKLVRNIYKRKGTLQIHPVVITSFEIAMRDRNALQHCYWKYLIVDEGHRIKNMKCRLIRELKRFNADNKLLLTGTPLQNNLSELWSLLNFLLPDVFDDLKSFESWFDITSLSETAEDIIAKEREQNVLHMLHQILTPFLLRRLKSDVALEVPPKREVVVYAPLSKKQEIFYTAIVNRTIANMFGSSEKETIELSPTGRPKRRTRKSINYSKIDDFPNELEKLISQIQPEVDRERAVVEVNIPVESEVNLKLQNIMMLLRKCCNHPYLIEYPIDPVTQEFKIDEELVTNSGKFLILDRMLPELKKRGHKVLLFSQMTSMLDILMDYCHLRDFNFSRLDGSMSYSEREKNMHSFNTDPEVFIFLVSTRAGGLGINLTAADTVIIYDSDWNPQSDLQAQDRCHRIGQTKPVVVYRLVTANTIDQKIVERAAAKRKLEKLIIHKNHFKGGQSGLNLSKNFLDPKELMELLKSRDYEREIKGSREKVISDKDLELLLDRSDLIDQMNASGPIKEKMGIFKILENSEDSSPECLF
B4: C16orf48, Q9H0I2 (protein)
chain: MCEGPSRISGPIPPDPTLCPDNYRRPTSAQGRLEGNALKLDLLTSDRALDTTAPRGPCIGPGAGEILERGQRGVGDVLLQLEGISLGPGASLKRKDPKDHEKENLRRIREIQKRFREQERSREQGQPRPLKALWRSPKYDKVESRVKAQLQEPGPASGTESAHFLRAHSRCGPGLPPPHVSSPQPTPPGPEAKEPGLGVDFIRHNARAAKRAPRRHSCSLQVLAQVLEQQRQAQEHYNATQKGHVPHYLLERRDLWRREAEARKQSQPDPAMPPGHTRMPENQRLETLTKLLQSQSQLLRELVLLPAGADSLRAQSHRAELDRKLVQVEEAIKIFSRPKVFVKMDD

Molecular target: SARS-CoV-2 M
Experiment: yeast fitness gain over the viral ORF with no human partner (scaled fitness); higher = more likely to interact
Experimental: (§1)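 Split mouse DHFR complementation in pooled diploid yeast: human ORFeome clones carry one fragment and viral ORFs the other; barcoded lineages compete in 1 µg/mL methotrexate and fitness is read by barcode sequencing in up to three cultures.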

| Binder | yeast fitness gain |
| --- | --- |
| B1 | inactive: -0.0185 |
| B2 | inactive: -0.0215 |
| B3 | inactive: -0.0555 |
| B4 | inactive: 0.0705 |

Molecular target: SARS-CoV-2 NSP1
Experiment: as above
Experimental: as §1

| Binder | yeast fitness gain |
| --- | --- |
| B1 | inactive: -0.0672 |
| B2 | inactive: 0.0869 |
| B3 | inactive: 0.0428 |
| B4 | inactive: -0.00117 |

Molecular target: SARS-CoV-2 NSP10
Experiment: as above
Experimental: as §1

| Binder | yeast fitness gain |
| --- | --- |
| B1 | inactive: 0.0559 |
| B2 | inactive: -0.0422 |
| B3 | inactive: -0.0306 |
| B4 | inactive: -0.00548 |

Molecular target: SARS-CoV-2 NSP12
Experiment: as above
Experimental: as §1

| Binder | yeast fitness gain |
| --- | --- |
| B1 | inactive: -0.0544 |
| B2 | inactive: -0.00648 |
| B3 | inactive: -0.0861 |
| B4 | inactive: -0.0253 |

Molecular target: SARS-CoV-2 NSP13
Experiment: as above
Experimental: as §1

| Binder | yeast fitness gain |
| --- | --- |
| B1 | inactive: -0.135 |
| B2 | inactive: -0.0701 |
| B3 | inactive: 0.0255 |
| B4 | inactive: -0.000632 |

Molecular target: SARS-CoV-2 NSP15
Experiment: as above
Experimental: as §1

| Binder | yeast fitness gain |
| --- | --- |
| B1 | inactive: 0.00149 |
| B2 | inactive: 0.0155 |
| B3 | inactive: 0.00945 |
| B4 | inactive: 0.0324 |

Molecular target: SARS-CoV-2 NSP16
Experiment: as above
Experimental: as §1

| Binder | yeast fitness gain |
| --- | --- |
| B1 | inactive: -0.115 |
| B2 | inactive: -0.0798 |
| B3 | inactive: -0.0443 |
| B4 | inactive: 0.0167 |

Molecular target: SARS-CoV-2 NSP2
Experiment: as above
Experimental: as §1

| Binder | yeast fitness gain |
| --- | --- |
| B1 | inactive: -0.118 |
| B2 | inactive: -0.211 |
| B3 | inactive: -0.141 |
| B4 | inactive: -0.162 |

Molecular target: SARS-CoV-2 NSP5
Experiment: as above
Experimental: as §1

| Binder | yeast fitness gain |
| --- | --- |
| B1 | inactive: -0.0634 |
| B2 | inactive: 0.00598 |
| B3 | inactive: 0.0276 |
| B4 | inactive: -0.00229 |

Molecular target: SARS-CoV-2 NSP6
Experiment: as above
Experimental: as §1

| Binder | yeast fitness gain |
| --- | --- |
| B1 | inactive: 0.0451 |
| B2 | inactive: -0.151 |
| B3 | inactive: 0.0105 |
| B4 | inactive: -0.0276 |

Molecular target: SARS-CoV-2 NSP7
Experiment: as above
Experimental: as §1

| Binder | yeast fitness gain |
| --- | --- |
| B1 | inactive: -0.0223 |
| B3 | inactive: -0.0638 |
| B4 | inactive: 0.0996 |

Molecular target: SARS-CoV-2 NSP8
Experiment: as above
Experimental: as §1

| Binder | yeast fitness gain |
| --- | --- |
| B1 | inactive: 0.068 |
| B3 | inactive: 0.0313 |
| B4 | inactive: -0.0673 |

Molecular target: SARS-CoV-2 ORF10
Experiment: as above
Experimental: as §1

| Binder | yeast fitness gain |
| --- | --- |
| B1 | inactive: -0.0511 |
| B2 | inactive: 0.0218 |
| B3 | inactive: -0.00964 |
| B4 | inactive: 0.032 |

Molecular target: SARS-CoV-2 ORF3B
Experiment: as above
Experimental: as §1

| Binder | yeast fitness gain |
| --- | --- |
| B1 | inactive: 0.00522 |
| B2 | inactive: -0.115 |
| B3 | inactive: -0.00438 |
| B4 | inactive: -0.0561 |

Molecular target: SARS-CoV-2 ORF6
Experiment: as above
Experimental: as §1

| Binder | yeast fitness gain |
| --- | --- |
| B1 | inactive: 0.00569 |
| B2 | inactive: -0.0356 |
| B3 | inactive: -0.0127 |
| B4 | inactive: 0.0623 |

Molecular target: SARS-CoV-2 ORF7A
Experiment: as above
Experimental: as §1

| Binder | yeast fitness gain |
| --- | --- |
| B1 | inactive: -0.172 |
| B3 | inactive: -0.1 |
| B4 | inactive: 0.0104 |

Molecular target: SARS-CoV-2 ORF7B
Experiment: as above
Experimental: as §1

| Binder | yeast fitness gain |
| --- | --- |
| B1 | inactive: 0.0226 |
| B2 | inactive: -0.071 |
| B3 | inactive: 0.0344 |
| B4 | inactive: -0.091 |

Molecular target: SARS-CoV-2 ORF8
Experiment: as above
Experimental: as §1

| Binder | yeast fitness gain |
| --- | --- |
| B1 | inactive: 0.105 |
| B2 | inactive: 0.013 |
| B3 | inactive: 0.0318 |
| B4 | inactive: 0.0231 |

Molecular target: SARS-CoV-2 ORF9B
Experiment: as above
Experimental: as §1

| Binder | yeast fitness gain |
| --- | --- |
| B1 | inactive: -0.028 |
| B2 | inactive: -0.027 |
| B3 | inactive: -0.019 |
| B4 | inactive: 0.0323 |

Molecular target: SARS-CoV-2 ORF9Bwu (the 73-codon ORF)
Experiment: as above
Experimental: as §1

| Binder | yeast fitness gain |
| --- | --- |
| B1 | inactive: 0.0197 |
| B3 | inactive: -0.0228 |
| B4 | inactive: -0.0275 |

Molecular target: SARS-CoV-2 S
Experiment: as above
Experimental: as §1

| Binder | yeast fitness gain |
| --- | --- |
| B1 | inactive: -0.101 |
| B2 | inactive: -0.0571 |
| B3 | inactive: 0.0133 |
| B4 | inactive: 0.0674 |

Molecular target: SARS-CoV-2 N
Experiment: as above
Experimental: as §1

| Binder | yeast fitness gain |
| --- | --- |
| B2 | inactive: -0.0637 |
| B4 | inactive: -0.127 |

Molecular target: SARS-CoV-2 ORF3A
Experiment: as above
Experimental: as §1

| Binder | yeast fitness gain |
| --- | --- |
| B2 | inactive: -0.0608 |
| B3 | inactive: 0.0831 |
| B4 | inactive: 0.0696 |

Molecular target: SARS-CoV-2 NSP4
Experiment: as above
Experimental: as §1

| Binder | yeast fitness gain |
| --- | --- |
| B3 | inactive: -0.0312 |
| B4 | inactive: -0.0705 |

Molecular target: SARS-CoV-2 NSP9
Experiment: as above
Experimental: as §1

| Binder | yeast fitness gain |
| --- | --- |
| B3 | inactive: 0.0758 |
| B4 | inactive: -0.108 |

Molecular target: SARS-CoV-2 NSP14
Experiment: as above
Experimental: as §1

| Binder | yeast fitness gain |
| --- | --- |
| B4 | inactive: 0.099 |
